{"source": "the supplement of paper PMC8728848", "binders": {"B1": {"name": "OGAA (protein)", "chain": "MVQKESQATLEERESELSSNPAASAGASLEPPAAPAPGEDNPAGAGGAAVAGAAGGARRFLCGVVEGFYGRPWVMEQRKELFRRLQKWELNTYLYAPKDDYKHRMFWREMYSVEEAEQLMTLISAAREYEIEFIYAISPGLDITFSNPKEVSTLKRKLDQVSQFGCRSFALLFADIDHNMCAADKEVFSSFAHAQVSITNEIYQYLGEPETFLFCPTEYCGTFCYPNVSQSPYLRTVGEKLLPGIEVLWTGPKVVSKEIPVESIEEVSKIIKRAPVIWDNIHANDYDQKRLFLGPYKGRSTELIPRLKGVLTNPNCEFEANYVAIHTLATWYKSNMNGVRKDVVMTDSEDSTVSIQIKLENEGSDEDIETDVLYSPQMALKLALTEWLQEFGVPHQY"}}, "test_in_all_cases": "glycan array binding signal (z-score within array); higher = stronger binding", "conditions_in_all_cases": "glycan notation: IUPAC condensed, linker removed", "key": {"[1]": {"molecular_target": "Fuc(a1-2)[Gal(a1-3)]Gal(b1-4)GlcNAc(b1-2)Man(a1-3)[Fuc(a1-2)[Gal(a1-3)]Gal(b1-4)GlcNAc(b1-2)Man(a1-6)]Man(b1-4)GlcNAc(b1-4)[Fuc(a1-6)]GlcNAc", "procedure,_shortened": "(§1)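 The binding signal is a Z-score computed within each array. Data were drawn from 3228 arrays in the Consortium for Functional Glycomics database, restricted to those with a known protein sequence. Scores were averaged over arrays of the same protein sequence at different concentrations or buffers, and over linkers, and negative values can be taken as non-binding.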"}, "[2]": {"molecular_target": "Fuc(a1-2)[Gal(a1-3)]Gal(b1-4)GlcNAc(b1-3)GalNAc", "procedure,_shortened": "as §1"}, "[3]": {"molecular_target": "Fuc(a1-2)[Gal(a1-3)]Gal(b1-4)GlcNAc(b1-3)[Fuc(a1-2)[Gal(a1-3)]Gal(b1-4)GlcNAc(b1-6)]GalNAc", "procedure,_shortened": "as §1"}, "[4]": {"molecular_target": "Fuc(a1-2)[Gal(a1-3)]Gal(b1-4)GlcNAc(b1-6)GalNAc", "procedure,_shortened": "as §1"}, "[5]": {"molecular_target": "Fuc(a1-2)[Gal(a1-3)]Gal(b1-4)[Fuc(a1-3)]Glc", "procedure,_shortened": "as §1"}, "[6]": {"molecular_target": "Fuc(a1-2)[Gal(a1-3)]Gal(b1-4)[Fuc(a1-3)]GlcNAc", "procedure,_shortened": "as §1"}, "[7]": {"molecular_target": "Fuc(a1-2)[Gal(a1-3)]Gal(b1-4)[Fuc(a1-3)]GlcNAc(b1-3)GalNAc", "procedure,_shortened": "as §1"}, "[8]": {"molecular_target": "Fuc(a1-2)[Gal(a1-4)]Gal(b1-4)GlcNAc", "procedure,_shortened": "as §1"}, "[9]": {"molecular_target": "Fuc(a1-2)[GalNAc(a1-3)]Gal", "procedure,_shortened": "as §1"}, "[10]": {"molecular_target": "Fuc(a1-2)[GalNAc(a1-3)]Gal(b1-3)GalNAc(a1-3)[Fuc(a1-2)]Gal(b1-4)GlcNAc", "procedure,_shortened": "as §1"}, "[11]": {"molecular_target": "Fuc(a1-2)[GalNAc(a1-3)]Gal(b1-3)GalNAc(b1-3)Gal(a1-4)Gal(b1-4)Glc", "procedure,_shortened": "as §1"}, "[12]": {"molecular_target": "Fuc(a1-2)[GalNAc(a1-3)]Gal(b1-3)GlcNAc", "procedure,_shortened": "as §1"}, "[13]": {"molecular_target": "Fuc(a1-2)[GalNAc(a1-3)]Gal(b1-3)GlcNAc(b1-2)Man(a1-3)[Fuc(a1-2)[GalNAc(a1-3)]Gal(b1-3)GlcNAc(b1-2)Man(a1-6)]Man(b1-4)GlcNAc(b1-4)GlcNAc", "procedure,_shortened": "as §1"}, "[14]": {"molecular_target": "Fuc(a1-2)[GalNAc(a1-3)]Gal(b1-3)GlcNAc(b1-2)Man(a1-3)[Fuc(a1-2)[GalNAc(a1-3)]Gal(b1-3)GlcNAc(b1-2)Man(a1-6)]Man(b1-4)GlcNAc(b1-4)[Fuc(a1-6)]GlcNAc", "procedure,_shortened": "as §1"}, "[15]": {"molecular_target": "Fuc(a1-2)[GalNAc(a1-3)]Gal(b1-3)GlcNAc(b1-3)GalNAc", "procedure,_shortened": "as §1"}, "[16]": {"molecular_target": "Fuc(a1-2)[GalNAc(a1-3)]Gal(b1-3)GlcNAc(b1-6)GalNAc", "procedure,_shortened": "as §1"}, "[17]": {"molecular_target": "Fuc(a1-2)[GalNAc(a1-3)]Gal(b1-4)Glc", "procedure,_shortened": "as §1"}, "[18]": {"molecular_target": "Fuc(a1-2)[GalNAc(a1-3)]Gal(b1-4)GlcNAc", "procedure,_shortened": "as §1"}, "[19]": {"molecular_target": "Fuc(a1-2)[GalNAc(a1-3)]Gal(b1-4)GlcNAc(b1-2)Man", "procedure,_shortened": "as §1"}, "[20]": {"molecular_target": "Fuc(a1-2)[GalNAc(a1-3)]Gal(b1-4)GlcNAc(b1-2)Man(a1-3)[Fuc(a1-2)[GalNAc(a1-3)]Gal(b1-4)GlcNAc(b1-2)Man(a1-6)]Man(b1-4)GlcNAc(b1-4)GlcNAc", "procedure,_shortened": "as §1"}, "[21]": {"molecular_target": "Fuc(a1-2)[GalNAc(a1-3)]Gal(b1-4)GlcNAc(b1-2)Man(a1-3)[Fuc(a1-2)[GalNAc(a1-3)]Gal(b1-4)GlcNAc(b1-2)Man(a1-6)]Man(b1-4)GlcNAc(b1-4)[Fuc(a1-6)]GlcNAc", "procedure,_shortened": "as §1"}, "[22]": {"molecular_target": "Fuc(a1-2)[GalNAc(a1-3)]Gal(b1-4)GlcNAc(b1-3)Gal(b1-4)GlcNAc", "procedure,_shortened": "as §1"}, "[23]": {"molecular_target": "Fuc(a1-2)[GalNAc(a1-3)]Gal(b1-4)GlcNAc(b1-3)Gal(b1-4)GlcNAc(b1-3)Gal(b1-4)GlcNAc", "procedure,_shortened": "as §1"}, "[24]": {"molecular_target": "Fuc(a1-2)[GalNAc(a1-3)]Gal(b1-4)GlcNAc(b1-3)GalNAc", "procedure,_shortened": "as §1"}, "[25]": {"molecular_target": "Fuc(a1-2)[GalNAc(a1-3)]Gal(b1-4)GlcNAc(b1-3)[Fuc(a1-2)[GalNAc(a1-3)]Gal(b1-4)GlcNAc(b1-6)]GalNAc", "procedure,_shortened": "as §1"}, "[26]": {"molecular_target": "Fuc(a1-2)[GalNAc(a1-3)]Gal(b1-4)GlcNAc(b1-6)GalNAc", "procedure,_shortened": "as §1"}, "[27]": {"molecular_target": "Fuc(a1-2)[GalNAc(a1-3)]Gal(b1-4)[Fuc(a1-3)]GlcNAc", "procedure,_shortened": "as §1"}, "[28]": {"molecular_target": "Fuc(a1-2)[GalNAc(a1-3)]Gal(b1-4)[Fuc(a1-3)]GlcNAc(b1-3)GalNAc", "procedure,_shortened": "as §1"}, "[29]": {"molecular_target": "Fuc(a1-2)[GalNAc(a1-4)]Gal(b1-4)GlcNAc", "procedure,_shortened": "as §1"}, "[30]": {"molecular_target": "Fuc(a1-2)[GalNAc(b1-3)]Gal", "procedure,_shortened": "as §1"}, "[31]": {"molecular_target": "Fuc(a1-3)GlcNAc", "procedure,_shortened": "as §1"}, "[32]": {"molecular_target": "Fuc(a1-3)[Gal(b1-4)]Glc6S", "procedure,_shortened": "as §1"}, "[33]": {"molecular_target": "Fuc(a1-3)[Gal(b1-4)]GlcNAc", "procedure,_shortened": "as §1"}, "[34]": {"molecular_target": "Fuc(a1-3)[Gal(b1-4)]GlcNAc(b1-2)Man", "procedure,_shortened": "as §1"}, "[35]": {"molecular_target": "Fuc(a1-3)[Gal(b1-4)]GlcNAc(b1-2)Man(a1-3)[Fuc(a1-3)[Gal(b1-4)]GlcNAc(b1-2)Man(a1-6)]Man(b1-4)GlcNAc(b1-4)GlcNAc", "procedure,_shortened": "as §1"}, "[36]": {"molecular_target": "Fuc(a1-3)[Gal(b1-4)]GlcNAc(b1-2)Man(a1-3)[Fuc(a1-3)[Gal(b1-4)]GlcNAc(b1-2)Man(a1-6)]Man(b1-4)GlcNAc(b1-4)[Fuc(a1-6)]GlcNAc", "procedure,_shortened": "as §1"}, "[37]": {"molecular_target": "Fuc(a1-3)[Gal(b1-4)]GlcNAc(b1-3)Gal(b1-3)[Fuc(a1-4)]GlcNAc", "procedure,_shortened": "as §1"}}, "note": "The other results are listed elsewhere or left out.", "data": [{"binder": "B1", "values": [{"measurement": "glycan array binding signal (z-score)", "setting": "[1]", "result": -0.058}, {"measurement": "glycan array binding signal (z-score)", "setting": "[2]", "result": -0.076}, {"measurement": "glycan array binding signal (z-score)", "setting": "[3]", "result": -0.026}, {"measurement": "glycan array binding signal (z-score)", "setting": "[4]", "result": -0.079}, {"measurement": "glycan array binding signal (z-score)", "setting": "[5]", "result": -0.104}, {"measurement": "glycan array binding signal (z-score)", "setting": "[6]", "result": 0.083}, {"measurement": "glycan array binding signal (z-score)", "setting": "[7]", "result": 0.001}, {"measurement": "glycan array binding signal (z-score)", "setting": "[8]", "result": -0.047}, {"measurement": "glycan array binding signal (z-score)", "setting": "[9]", "result": -0.073}, {"measurement": "glycan array binding signal (z-score)", "setting": "[10]", "result": 22.9}, {"measurement": "glycan array binding signal (z-score)", "setting": "[11]", "result": 8.04}, {"measurement": "glycan array binding signal (z-score)", "setting": "[12]", "result": -0.045}, {"measurement": "glycan array binding signal (z-score)", "setting": "[13]", "result": -0.129}, {"measurement": "glycan array binding signal (z-score)", "setting": "[14]", "result": -0.053}, {"measurement": "glycan array binding signal (z-score)", "setting": "[15]", "result": -0.061}, {"measurement": "glycan array binding signal (z-score)", "setting": "[16]", "result": -0.088}, {"measurement": "glycan array binding signal (z-score)", "setting": "[17]", "result": -0.075}, {"measurement": "glycan array binding signal (z-score)", "setting": "[18]", "result": -0.076}, {"measurement": "glycan array binding signal (z-score)", "setting": "[19]", "result": -0.091}, {"measurement": "glycan array binding signal (z-score)", "setting": "[20]", "result": 0.001}, {"measurement": "glycan array binding signal (z-score)", "setting": "[21]", "result": -0.123}, {"measurement": "glycan array binding signal (z-score)", "setting": "[22]", "result": -0.067}, {"measurement": "glycan array binding signal (z-score)", "setting": "[23]", "result": -0.119}, {"measurement": "glycan array binding signal (z-score)", "setting": "[24]", "result": 0.012}, {"measurement": "glycan array binding signal (z-score)", "setting": "[25]", "result": -0.11}, {"measurement": "glycan array binding signal (z-score)", "setting": "[26]", "result": -0.059}, {"measurement": "glycan array binding signal (z-score)", "setting": "[27]", "result": -0.081}, {"measurement": "glycan array binding signal (z-score)", "setting": "[28]", "result": -0.089}, {"measurement": "glycan array binding signal (z-score)", "setting": "[29]", "result": -0.097}, {"measurement": "glycan array binding signal (z-score)", "setting": "[30]", "result": -0.105}, {"measurement": "glycan array binding signal (z-score)", "setting": "[31]", "result": -0.07}, {"measurement": "glycan array binding signal (z-score)", "setting": "[32]", "result": -0.09}, {"measurement": "glycan array binding signal (z-score)", "setting": "[33]", "result": -0.025}, {"measurement": "glycan array binding signal (z-score)", "setting": "[34]", "result": -0.025}, {"measurement": "glycan array binding signal (z-score)", "setting": "[35]", "result": -0.086}, {"measurement": "glycan array binding signal (z-score)", "setting": "[36]", "result": 0.034}, {"measurement": "glycan array binding signal (z-score)", "setting": "[37]", "result": -0.011}]}]}
